In PubChem BioAssay AID588342 (National Center for Advancing Translational Sciences (NCATS), 2011):
“And” between values parts separate entries of the source, which are not always exact repeats. Identical values can stand only once. Out of some 360,000 compounds screened, about 25,000 (6.9%) were called active. Inconclusive means that the source gave no clear call. Such entries were picked first, then a sample of the others. The call rests on the fitted dose curve; in most records, active means well fitted inhibition curve with a large enough effect; inconclusive means small, poorly fitted or top-dose-only effect; inactive means flat fitted curve, though single readings scatter. Potencies beside an inconclusive call are fits to weak or partial responses and may not hold up.

These molecules were tested against Luciferin 4-monooxygenase (Photinus pyralis) (UniProt P08659) (assay: qHTS profiling assay for firefly luciferase inhibitor/activator using purifed enzyme and Km concentrations of substrates (counterscreen for miR-21 project)). Conditions: purified FLuc, luminescence inhibition; series mostly up to 57.5 µM; activity change, negative = inhibition: at the top concentration.
Chain of UniProt P08659 (P08659 whole entry, looked up): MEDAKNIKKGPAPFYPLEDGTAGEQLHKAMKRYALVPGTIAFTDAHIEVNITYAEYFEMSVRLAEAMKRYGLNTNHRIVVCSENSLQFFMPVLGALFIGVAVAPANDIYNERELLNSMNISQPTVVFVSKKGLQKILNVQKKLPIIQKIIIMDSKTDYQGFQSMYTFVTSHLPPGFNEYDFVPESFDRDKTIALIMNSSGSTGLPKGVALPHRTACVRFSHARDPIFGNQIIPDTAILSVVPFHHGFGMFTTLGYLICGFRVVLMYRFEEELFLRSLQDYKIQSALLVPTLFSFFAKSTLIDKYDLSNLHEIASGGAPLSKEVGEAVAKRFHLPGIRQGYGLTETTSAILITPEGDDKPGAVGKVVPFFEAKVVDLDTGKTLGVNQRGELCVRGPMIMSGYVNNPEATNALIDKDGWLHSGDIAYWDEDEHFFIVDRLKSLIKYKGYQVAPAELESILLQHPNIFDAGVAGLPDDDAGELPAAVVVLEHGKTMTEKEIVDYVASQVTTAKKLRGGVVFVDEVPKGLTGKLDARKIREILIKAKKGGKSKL
Method in brief: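 Biochemical qHTS of compounds, final roughly 60 µM downward over six points, against 10 nM purified firefly luciferase using Km concentrations of substrates (10 uM D-luciferin, 10 uM ATP) in Tris acetate pH 7.5 buffer; luminescence output.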
Further: nearly all actives have a fitted effect of over 55% in size.
Potency means the concentration at half of the fitted maximal effect; tags describe the fitted curve by direction and shape.
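Wherever activity change, negative = inhibition is given: plate controls were vehicle for no effect and reference inhibitor for full effect.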

| Compound | Potency | activity change, negative = inhibition |
| --- | --- | --- |
| COc1ccc(CCNc2ncnc3c2[nH]c2cc(OC)c(OC)cc23)cc1OC | inconclusive: 16.9 µM [inhibitor, partial curve, poor fit] |  |
| COC(=O)Cn1c(=NC(=O)C(C)C)sc2c(C)cc(C)cc21 | inconclusive: 6.01 µM [inhibitor, partial curve, poor fit] |  |
| Cc1cc(C(=O)NNC(=O)c2ccc(Cl)cc2Cl)c(C)o1 | inconclusive: 26.9 µM [inhibitor, partial curve] |  |
| CCC(=O)Nc1ccc(NC(=O)CN2CCCC(C)C2)c(Cl)c1 (centres undefined) | inconclusive: 30.1 µM [inhibitor, partial curve, poor fit] |  |
| O=C(Nc1nnc(SCc2cccc(F)c2)s1)c1ccco1 | inconclusive: 21.3 µM [inhibitor, partial curve] |  |
| CC(C)CSc1nc2ccccc2[nH]1 | inconclusive: 26.9 µM [inhibitor, single point] |  |
| Cc1ccccc1N(C(=O)CNC(=O)c1ccco1)C(C(=O)NC1CCCCC1)c1cccnc1 (centres undefined) |  | inactive: -0.229% |
| C=C(C)Cn1c(-c2ccc(OC)cc2)nc2ccccc21 | inconclusive: 23.9 µM [inhibitor, partial curve, poor fit] |  |
| Nc1nnnn1/N=C/C(Br)=C/c1ccccc1 | inconclusive: 3.79 µM [inhibitor, partial curve, poor fit] |  |
| Cc1ccc(Cn2ccnc2SCC(=O)Nc2nnc(C)s2)cc1 |  | inactive: -13.9% |
| COCn1c(COc2ccccc2)nc2ccccc21 | active: 16.9 µM |  |
| O=C(CSCSCC(=O)Nc1ccc2c(c1)OCO2)Nc1ccc2c(c1)OCO2 | active: 16.9 µM |  |
| CC1CCc2sc(C(=O)NCC3CCCO3)cc2C1 (centres undefined) | active: 10.7 µM |  |
| O=C(NNC(=S)Nc1ccc(Cl)c(Cl)c1)c1ccccn1 | inconclusive: 21.3 µM [inhibitor, single point] |  |
| O=C(O)c1ccc(-c2ccc(/C=c3/sc4nc5ccccc5n4c3=O)o2)cc1Cl | active: 19 µM |  |
| CCCOC(=O)c1ccc(NC(=O)C2C3C=CC(O3)C2C(=O)O)cc1 (centres undefined) | inconclusive: 30.1 µM [inhibitor, partial curve, poor fit] |  |
| COCCSc1nnc(NC(=O)C2CC(=O)N(c3ccc(OC)cc3)C2)s1 (centres undefined) | inconclusive: 10.7 µM [inhibitor, partial curve, poor fit] |  |
| O=C1N/C(=C/c2ccc(N3CCOCC3)o2)C(=O)N1c1ccccc1 | inconclusive: 26.9 µM [inhibitor, single point] |  |
| O=C(NC1CCN(Cc2ccccc2)CC1)c1ccc(Cn2c(=O)c3ccccc3n(Cc3ccc(F)cc3)c2=O)cc1 |  | inactive: 0.931% |
| Cc1cccc(N2C(=NC(=O)c3ccccc3)SC3CS(=O)(=O)CC32)c1 (centres undefined) |  | inactive: -2.56% |
| CCn1c(NCc2ccc3c(c2)OCO3)nc2ccccc21 | inconclusive: 23.9 µM [inhibitor, partial curve] |  |
| CC(=O)Nc1ccc(NC(=O)CCC(=O)OCC(=O)c2ccc(F)cc2)cc1 |  | inactive: 0.521% |
| Cc1ccc(COc2ccsc2C(=O)O)cc1 | inconclusive: 37.9 µM [inhibitor, partial curve, poor fit] |  |

| Compound | Potency | activity change, negative = inhibition |
| --- | --- | --- |
| Cc1nn2c(COc3ccc(NC(=O)c4ccccc4)cc3)nnc2c2ccccc12 | inconclusive: 2.39 µM [inhibitor, full curve, poor fit] |  |
| COc1ccc(N2CCN(C(=O)COCc3cc(-c4ccc5c(c4)OCO5)on3)CC2)cc1 | inconclusive: 37.9 µM [inhibitor, single point] and inconclusive: 23.9 µM [inhibitor, single point] |  |
| CC(C)(C)NC(=O)NC(=O)CSc1nnc(COc2ccccc2Cl)o1 | active: 16.9 µM |  |
| CCOC(=O)c1c(C)[nH]c(N=Nc2ccc(C)cc2)c1C | active: 3.79 µM |  |
| O=C(C/C=N\OCc1ccc(Cl)cc1Cl)Nc1ccccc1 | inconclusive: 37.9 µM [inhibitor, partial curve, poor fit] |  |
| COc1cccc(/C=N/n2c(CO)nc3ccccc32)c1OC | inconclusive: 23.9 µM [inhibitor, single point] |  |
| Cc1ccc2c(Cl)c(C(=O)N/N=C/c3cccn3C)sc2c1 | inconclusive: 0.675 µM [inhibitor, partial curve, poor fit] |  |
| O=C(C1=C(O)C(=O)N(Cc2ccco2)C1c1ccccc1F)c1cccs1 (centres undefined) | inconclusive: 10.7 µM [inhibitor, partial curve] |  |
| O=C(OCC1CCCO1)c1ccc2c(c1)N(Cc1ccccc1)C(=O)c1ccccc1S2(=O)=O (centres undefined) |  | inactive: -8.5% |
| C/C(=N\NC(=O)CNC(=O)C(c1ccccc1)c1ccccc1)c1ccc(C)cc1 |  | inactive: 2.35% |
| CCc1ccccc1NC(=O)CN1C(=O)CCSc2ccc(S(=O)(=O)N3CCCC3)cc21 |  | inactive: -5.37% |
| COc1ccc(NC(=O)NCCN2C(=O)C3C4C=CC(C4)C3C2=O)cc1 (centres undefined) | inconclusive: 21.3 µM [inhibitor, single point] |  |
| Cc1ccc(NC(=S)NNC(=O)c2ccco2)cc1 | inconclusive: 37.9 µM [inhibitor, partial curve, poor fit] |  |
| CCc1noc(C)c1C(=O)OCC(=O)Nc1ncc(Cl)cc1Cl |  | inactive: 0.492% |
| O=C(CN1C(=O)c2ccccc2S1(=O)=O)NCCSC1CCCCC1 | inconclusive: 9.53 µM [inhibitor, partial curve, poor fit] |  |
| CO/N=C/C(C#N)c1ncc(C(F)(F)F)cc1Cl (centres undefined) | inconclusive: 23.9 µM [inhibitor, single point] |  |
| COc1ccc([C@H]2CC(=O)C=C(c3cccc(Cl)c3O)C2)cc1OC |  | inactive: 1.05% |
| O=C1C(=O)c2ccccc2C(O)=C1c1ccccc1F | inconclusive: 19 µM [inhibitor, partial curve, poor fit] |  |
| O=C(O)Cn1cc(/C=C2/SC(=O)N(CC(=O)N3CCCCCC3)C2=O)c2ccccc21 | inconclusive: 37.9 µM [inhibitor, single point] |  |
| COc1ccc(CCNc2nc(-c3cccc(NC(C)=O)c3)cs2)cc1OC | inconclusive: 21.3 µM [inhibitor, single point] |  |
| c1ccc(Cn2c(NCc3ccncc3)nc3ccccc32)cc1 | inconclusive: 37.9 µM [inhibitor, single point] |  |
| O=C(NCc1ccco1)c1ccccc1-c1nc(-c2ccc(F)cc2)no1 | inconclusive: 23.9 µM [inhibitor, partial curve] |  |
| O=C(NCc1ccc2c(c1)OCO2)c1ccc2c(c1)N(Cc1ccccc1F)C(=O)c1ccccc1S2=O (centres undefined) |  | inactive: 2.72% |

| Compound | Potency | activity change, negative = inhibition |
| --- | --- | --- |
| CCOC(=O)c1c(-c2ccccc2)oc2ccc(N(C(C)=O)S(=O)(=O)c3ccccc3)cc12 |  | inactive: -12% |
| CC1CCCCN1C(=S)Nc1ccc(OC(F)F)cc1 (centres undefined) | inconclusive: 21.3 µM [inhibitor, single point] |  |
| O=[N+]([O-])c1ccc2[nH]c3c(c2c1)CCCC3 | inconclusive: 23.9 µM [inhibitor, partial curve, poor fit] |  |
| Cc1nc(NC(=O)c2ccccc2)sc1-c1csc(Nc2ccc(Cl)cc2Cl)n1 | active: 9.53 µM |  |
| Nc1c(C(=O)O)sc2nc3c(cc12)CCCC3 | inconclusive: 37.9 µM [inhibitor, partial curve, poor fit] |  |
| Cc1nc(C)c(-c2nnc(-c3ccc(C(C)(C)C)cc3)o2)cc1C(=O)NN | active: 23.9 µM |  |
| CCOC(=O)c1c(NC(=S)N2CCN(C)CC2)sc2c1CCN(C(=O)OCC)C2 |  | inactive: 3.86% |
| Cc1ccc(SCCN2CCC(C(C)(C)C)CCC2=O)cc1 (centres undefined) | inconclusive: 37.9 µM [inhibitor, single point] |  |
| COc1cccc(NC(=O)COc2cccc(-n3cnnn3)c2)c1 | inconclusive: 21.3 µM [inhibitor, partial curve, poor fit] |  |
| CC1CCCN(C(=O)COc2ccc(-c3ccccc3)cc2)C1 (centres undefined) | inconclusive: 30.1 µM [inhibitor, single point] |  |
| Cc1ccc(N=Nc2ccc(O)cc2)c(Br)c1 | active: 3.38 µM |  |
| COc1ccccc1CC(=O)NNC(=O)c1ccc(C(C)(C)C)cc1 | inconclusive: 26.9 µM [inhibitor, single point] |  |
| CC(=O)Oc1ccc2oc(/C=C/N(C)C)c([N+](=O)[O-])c2c1 | active: 15.1 µM |  |
| CCC(=O)N(c1ccc(C(=O)O)cc1)c1nc(-c2ccc(OC)cc2)c(C)s1 | inconclusive: 21.3 µM [inhibitor, partial curve, poor fit] |  |
| O=C(c1nc2ccccc2s1)N1CCSCC1 | inconclusive: 16.9 µM [inhibitor, partial curve] |  |
| Nc1[nH]c(N=NC(=O)c2ccc(Cl)cc2)c2ccccc12 | inconclusive: 4.78 µM [inhibitor, full curve] |  |
| Cc1[nH]cnc1C(=O)N/N=C/c1ccc([N+](=O)[O-])s1 | inconclusive: 37.9 µM [inhibitor, partial curve, poor fit] |  |
| Cc1ccc(C(=O)CSc2nc3c([nH]2)c(=O)n(C)c(=O)n3C)cc1 | inconclusive: 26.9 µM [inhibitor, partial curve, poor fit] |  |
| Cc1ccc(NC(=O)c2cccc(NC3=NC4CS(=O)(=O)CC4S3)c2)cc1C (centres undefined) | active: 13.5 µM |  |
| Cc1cccc(Nc2nnc(SCC3CCCCO3)s2)c1C (centres undefined) | active: 9.53 µM |  |
| OCc1ccccc1OCCCOc1cccc2cccnc12 | inconclusive: 21.3 µM [inhibitor, single point] |  |
| C/C(=N\Nc1nccnc1Cl)c1ccc(F)cc1 | active: 23.9 µM |  |
| O=C(CNC(=O)c1ccc(Oc2ccccc2)cc1)OC1CCCCC1=O (centres undefined) | inconclusive: 21.3 µM [inhibitor, single point] |  |
